The structures appear in SMILES notation. In all, about 310,000 compounds went through this assay and about 14,000 (4.5%) showed an effect of 50% or more. Effects have a minus sign here. The list shows a part of the results.
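Further: peak tail current of the secondary pulse compared with the same well before compound.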

In this assay the target is human ether-à-go-go-related gene (hERG) potassium channel (human, UniProt Q12809). Description: primary screen, population patch clamp on CHO cells stably expressing hERG.
human ether-à-go-go-related gene (hERG) potassium channel, sequence (Q12809 whole entry, looked up): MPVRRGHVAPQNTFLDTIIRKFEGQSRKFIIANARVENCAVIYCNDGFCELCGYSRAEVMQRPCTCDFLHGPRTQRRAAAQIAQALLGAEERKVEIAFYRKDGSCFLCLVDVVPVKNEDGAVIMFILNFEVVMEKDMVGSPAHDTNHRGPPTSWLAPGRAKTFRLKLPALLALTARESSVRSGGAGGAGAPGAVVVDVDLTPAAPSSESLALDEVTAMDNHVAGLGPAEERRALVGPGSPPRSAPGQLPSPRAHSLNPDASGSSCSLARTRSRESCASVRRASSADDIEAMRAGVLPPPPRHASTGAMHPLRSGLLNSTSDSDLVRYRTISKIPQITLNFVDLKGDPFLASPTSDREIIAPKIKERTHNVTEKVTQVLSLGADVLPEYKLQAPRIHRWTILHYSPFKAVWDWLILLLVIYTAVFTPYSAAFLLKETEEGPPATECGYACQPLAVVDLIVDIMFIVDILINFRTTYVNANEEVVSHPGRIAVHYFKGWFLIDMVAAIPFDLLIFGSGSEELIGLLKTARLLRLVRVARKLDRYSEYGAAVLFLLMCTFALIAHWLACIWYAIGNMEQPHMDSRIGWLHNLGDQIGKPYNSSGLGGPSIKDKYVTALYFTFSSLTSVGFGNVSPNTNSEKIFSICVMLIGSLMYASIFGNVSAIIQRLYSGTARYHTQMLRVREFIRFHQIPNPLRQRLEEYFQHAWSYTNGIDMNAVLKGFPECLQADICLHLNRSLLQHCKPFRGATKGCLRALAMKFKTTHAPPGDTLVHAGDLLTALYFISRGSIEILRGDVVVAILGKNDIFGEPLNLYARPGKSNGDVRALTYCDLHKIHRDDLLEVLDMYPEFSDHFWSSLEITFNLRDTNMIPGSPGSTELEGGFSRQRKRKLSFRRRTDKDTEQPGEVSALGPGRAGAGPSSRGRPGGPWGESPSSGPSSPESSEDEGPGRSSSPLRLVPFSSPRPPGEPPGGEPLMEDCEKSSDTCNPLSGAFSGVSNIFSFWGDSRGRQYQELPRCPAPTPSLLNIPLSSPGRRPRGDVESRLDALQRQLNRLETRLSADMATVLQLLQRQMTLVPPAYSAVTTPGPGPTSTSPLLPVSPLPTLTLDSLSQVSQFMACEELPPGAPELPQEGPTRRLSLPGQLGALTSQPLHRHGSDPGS
Regarding `COc1ccc(NC(=O)N2CCc3ccccc3C2)cc1`, the “hERG current change (%, negative = inhibition) at 10uM” value stood at 5.74%.
In the case of `CC(CCc1ccccc1)NC(=O)CN1CCN(Cc2ccccc2)C1=O` (centres unmarked) it was -18.2%.
In the case of `CCOC(=O)N1CCN(c2nc(C)cc(C(F)(F)F)n2)CC1` it was 20.1%; in that of `CCC(=O)Nc1cc(-c2nn(C)c(=O)c3ccccc23)ccc1OC`, -11.4%; in that of `COc1cc(/C=C/C(=O)Nc2ccc(C)cc2)cc(OC)c1OC`, -2.49%.
Under `O=[N+]([O-])c1ccc(-c2cn3nc(-c4ccccc4)c(-c4ccccc4)nc3n2)cc1` stands 1.96%; under `CCn1c(C)nc2cc(C(=O)N/N=C/c3ccc(O)cc3)ccc21`, 12.8%.
As to `COC(=O)c1ccc(NC(=O)COc2ccc(S(=O)(=O)N3CCCCC3)cc2)cc1`, the “hERG current change (%, negative = inhibition) at 10uM” value is -9.57%.
In the case of `CCOC(=O)[C@H]1[C@H]2COc3ccc(OC)cc3[C@@H]2N2C(=O)c3ccc(C)cc3NC(=O)[C@@]12C` it was -8.9%.
In the case of `COC(CNC(=O)[C@H](CSCc1ccccc1)N1Cc2ccccc2C1=O)OC` it was -3.49%.
In the case of `O=C(CSCc1ccc(Cl)cc1)N/N=C/c1ccccc1`, the “hERG current change (%, negative = inhibition) at 10uM” value is reported as -13.5%.
For `O=C(NNS(=O)(=O)c1ccccc1[N+](=O)[O-])c1cccc([N+](=O)[O-])c1`, the “hERG current change (%, negative = inhibition) at 10uM” value stood at 7.58%.
In the case of `CCOC(=O)COc1nc(Nc2ccccc2C)nc(N(C)C)n1`, the “hERG current change (%, negative = inhibition) at 10uM” value was found to be 1.92%.
Under `C=CCOc1ccc(C2=NO[C@@H]3[C@@H]4C[C@@H]([C@H]5C(=O)N(C)C(=O)[C@@H]45)[C@H]23)cc1` stands -6.16%; under `O=C(Oc1ccc(-c2csnn2)cc1)c1cccs1`, 17.1%; under `COC(=O)C1=CN(c2ccc(F)cc2)C=C(C(=O)OC)C1c1ccc([N+](=O)[O-])cc1`, -20.2%.
In the case of `Cc1ccc(CS(=O)(=O)c2nc3c(c(N(C)C)n2)CCCC3)cc1` it was -20.5%; in that of `COc1ccccc1CN(C(=O)Cc1cccs1)C(C(=O)NC1CCCC1)c1ccncc1` (centres unmarked), -4.43%.
In the case of `CC(=O)C1=C(C)Nc2ncnn2C1c1ccccc1F` (centres unmarked) it was 8.25%; in that of `C/C(=N\NC(=O)c1cnccn1)c1ccc([N+](=O)[O-])cc1`, 5.39%.
As to `C=CCC1NS(=O)(=O)OC2CCCCC12` (centres unmarked), the “hERG current change (%, negative = inhibition) at 10uM” value is 7.26%.
In the case of `COc1ccc(CCNC(=O)CNCCc2ccc(F)cc2)cc1.O=C(O)C(=O)O` it was -38.1%; in that of `CCC(=O)Nc1ccc(Oc2ccc3c(c2)C(=O)NC3=O)cc1`, 10.7%.
